Data on 16 molecules can be found in PubChem BioAssay (NCATS).

Usually AC50 stands for the concentration giving half of the maximal activity seen. What is called IC50 is the midpoint of a concentration-inhibition curve.

A short description of test [1]: qHTS Assay for Lipid Storage Modulators (AID 1519). Particulars: Drosophila S3 cells, BODIPY lipid droplet/cell ratio, laser cytometry, cells loaded with oleic acid. An outline of the steps: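 Cells seeded at 5,000 per well were treated with compounds over a concentration series and loaded with oleic acid (400 uM, as added). Lipid droplet fluorescence (488 nm excitation, 500-530 nm channel) was read by laser-scanning cytometry and normalized to 20 uM Triacsin C.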
(In general: qHTS replaces the single test concentration by a dilution series.)

Test [2] in a line: Validation of Assay for Modulators of Lamin A Splicing (AID 1459). The note with it: Lamin A splicing dual RFP/GFP fluorescence reporter, ratio. A digest of the protocol: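 Dual-reporter HeLa S3 line (lamin A-EGFP minigene, DsRed2) treated with compounds 48 hrs, 0.5% DMSO final. Endpoint: EGFP/DsRed2 total intensity ratio from laser-scanning microplate cytometry.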
The nature of test [3]: qHTS Assay for Modulators of Human Peripheral Myelin Protein 22 (PMP22) Expression/Activity (AID 1967). Particulars: Cell-based PMP22 reporter, dual-color luciferase ratio. An outline of the steps:
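Engineered MSC80 cells, Pmp22-promoter green and EF-alpha red luciferase reporters; 24h compound treatment at 37 °C. Concentration-response fits on green, red and ratio signals, each overlap-corrected, with %Activity normalized to untreated wells.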

Test [4] in a line: qHTS Validation Assay to Find Inhibitors of Chronic Active B-Cell Receptor Signaling (AID 485345). The note with it: ABC-DLBCL cells, chronic BCR signaling reporter. An outline of the steps: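 Read-out: ratio of filter-corrected green (IkappaBalpha fusion) to red (native) luciferase signal in doxycycline-induced TMD8 cells after 4 h at 37C. Titration spanned 46 uM–3 nM; Data were normalised to basal cells and 10 uM MG-132 wells.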

Test [5] in a line: Nrf2 qHTS screen for inhibitors: Validation (AID 493153). Particulars: A549 ARE-Fluc reporter, 18-24 h; AC50: CellTiter-Fluor fluorescence read, measured here: cytotoxicity CellTiter-Fluor AC50; viability change: measured here: cytotoxicity max response. An outline of the steps:
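Dose-response validation uses reporter A549 cells with firefly luciferase under an antioxidant response element. Compounds stay on cells 18-24 h at 37°C, and luminescence indicates Nrf2-driven transcription.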

A short description of test [6]: Cell-based coincidence reporter assay to measure PMP22 gene transcription in S16 Pmp22-F2sN cells - Confirmatory screen (AID 1508646). The note with it: S16 Schwann cells Pmp22-F2sN, dual luciferase, 24 h. A digest of the protocol:
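Coincidence reporter read as sequential FLuc then NLuc luminescence (Nano-Glo Dual-Luciferase, 10 min each). Engineered S16 Pmp22-F2sN Schwann cells, 500-1,000 per well in DMEM/10% FBS, were exposed to compounds for 24 h, 37C.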

Test [7] in a line: qHTS Assay for Inhibitors of PDE-IV (AID 607).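 Further: parental cells stimulated with forskolin 10 µM plus RO 20-1724 100 µM.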 Particulars: HEK293 ACTOne CNG channel cells, membrane potential fluorescence; measured here: parental cell counter-screen. An outline of the steps: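 Cell-based read-out of cAMP via a modified cyclic nucleotide-gated channel and membrane potential dye (535/590 nm) in HEK293 cells expressing PDE4 endogenously. Compounds tested up to 22.9 uM final; 100 uM RO 20-1724 reference.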

The target of test [8] is Phenylethanolamine N-methyltransferase (Homo sapiens) (UniProt P11086). Put plainly: Confirmatory Screen for Target Class Profiling of Small Molecule Inhibitors of Methyltransferases (AID 1745852).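 Further: inhibitor potency for blocking SAH production.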 Particulars: MTase-Glo luminescence, SAH detection, recombinant enzyme; measured here: PNMT inhibition potency.
UniProt P11086, sequence (P11086 whole entry, looked up): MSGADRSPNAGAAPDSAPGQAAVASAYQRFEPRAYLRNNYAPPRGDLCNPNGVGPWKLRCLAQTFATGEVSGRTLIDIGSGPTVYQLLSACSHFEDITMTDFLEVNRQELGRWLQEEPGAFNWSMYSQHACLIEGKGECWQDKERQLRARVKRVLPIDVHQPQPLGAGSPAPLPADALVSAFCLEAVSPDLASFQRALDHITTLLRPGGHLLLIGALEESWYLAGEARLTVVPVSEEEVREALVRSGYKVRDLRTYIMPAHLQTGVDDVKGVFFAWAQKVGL
A short description of test [9]: NCATS anti-infectives library activity on the primary C. elegans qHTS viability assay (AID 1745855). The note with it: C. elegans worm area imaging, day 7, measured here: worm number. A digest of the protocol:
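Viability is taken from GFP fluorescence of PE254-GFP-FLuc C. elegans imaged by laser cytometry over 7 days. Ten L1 worms per well grow at 21 °C on TOP10 E. coli capsules with titrated compound; levamisole marks toxicity.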

Test [10] can be described thus: qHTS assay for small molecule antagonists of peroxisome proliferator-activated receptor delta signaling (AID 588535).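 Further: cells co-treated with a PPAR-delta agonist as stimulator during compound exposure.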 Particulars: HEK293T PPARd-UAS-bla, beta-lactamase FRET ratio, 18 h; 460 nm channel. An outline of the steps:
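Cell-based beta-lactamase assay in antagonist mode: 4000 HEK293T PPAR-delta-UAS-bla cells per well, 5 hr preincubation then 18 hr compound incubation at 37 C. IC50 obtained by Hill equation fitting.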

A short description of test [11]: qHTS assay for small molecule antagonists of vitamin D receptor signaling (AID 588541). The note with it: HEK293T VDR-UAS-bla, beta-lactamase ratio, antagonist mode; measured here: W460 blue channel (cell viability).
Test [12] can be described thus: qHTS assay for small molecule agonists of retinoid X receptor alpha signaling (AID 588544). The note with it: HEK293T RXRa-UAS-bla, beta-lactamase reporter, 18 h; 530 nm emission.
Test [13] is described as follows: qHTS assay for small molecule antagonists of retinoid X receptor alpha signaling (AID 588546).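 Further: cells stimulated with 9-cis-retinoic acid as agonist; on the % scale 0 is the no-effect control and ±100 the full control effect.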 Particulars: HEK293T RXRa-UAS-bla, beta-lactamase ratio, antagonist mode; measured here: W530 green channel, cytotoxicity proxy. A digest of the protocol: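 Beta-lactamase reporter inhibition, read as CCF4 fluorescence ratio (ex 405, em 460/530 nm) after 2 h at RT. HEK293T UAS-bla cells, 2500/well, were stimulated with 9-cis-RA at 500 or 100 nM final alongside test compound for 18 h at 37 C.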

Setting [14] is: measured here: cell count channel max response.
Where [15] appears, read: measured here: lipid channel max response.
Setting [16] is: measured here: green reporter channel AC50, mouse Pmp22 promoter in mouse Schwann cells.
[17] abbreviates: measured here: red reporter channel AC50, EF-alpha promoter control reporter in MSC80 mouse Schwann cells.
Where [18] appears, read: measured here: CBR control luciferase (viability counter).
Where [19] appears, read: measured here: lipid (BODIPY) channel AC50.

“And” between values parts separate entries of the source, which are not always exact repeats. Equal values may be shown once. Some of the results follow. The main result of the screen is listed elsewhere. These columns were measured beside it and carry no call. Most of these compounds were active or inconclusive in the main read-out, so they are no random draw. For some of these results: Words in brackets tell the shape of the fitted curve; partial curves, single points and poor fits give uncertain potencies.
Tags describe the fitted curve by direction and shape.

Turning to `CCCCCCCCCOc1ccc2[nH]cc(CCN)c2c1`, the max response is -7.02% in [1] (setting [14]) and -43.2% in test [1] (setting [15]).

With `Oc1ccccc1O`, the AC50 in test [2] (measured here: GFP channel) was 7.94 µM [falling, single point]; in test [2] (measured here: RFP channel), 35.5 µM [falling, single point]; in test [3] (setting [16]) it was 84.9 µM [falling, single point]; in test [3] (setting [17]), 75.7 µM [falling, single point]; in test [4] (setting [18]), 29.1 µM [falling, single point]; in [5], 23.1 µM [falling, partial curve, poor fit]. For the same molecule, the viability change in test [5] is -28.4%.

Turning to `CC1OC(=O)C(C(C)C)NC(=O)C(C(C)C)OC(=O)C(C(C)C)NC(=O)C(C)OC(=O)C(C(C)C)NC(=O)C(C(C)C)OC(=O)C(C(C)C)NC(=O)C(C)OC(=O)C(C(C)C)NC(=O)C(C(C)C)OC(=O)C(C(C)C)NC1=O` (centres undefined), the AC50 in test [1] (setting [19]) is 0.282 µM [falling, full curve].

Regarding `OC1CCCCC1N1CCC(c2ccccc2)CC1` (centres undefined), the figures for the max response in test [1] (setting [14]) and in [1] (setting [15]) were 62.4% and 66.4%, respectively.

In the case of `CCC1(C2=NCCN2)Cc2ccccc2O1` (centres undefined), the max response in test [1] (setting [14]) amounted to 42.6%; in test [1] (setting [15]), 40.8%.

For `O=c1oc(Cl)c(Cl)c2ccccc12`, the AC50 is 35.5 µM [falling, single point] in test [2] (measured here: GFP channel); 35.5 µM [falling, single point] in test [2] (measured here: RFP channel); 67.5 µM [falling, partial curve, poor fit] in test [3] (setting [16]); 10.3 µM [falling, partial curve] in test [4] (setting [18]).

With `COC(=O)C(N)CCCN=C(N)N[N+](=O)[O-]` (centres undefined), the values for the max response in test [1] (setting [14]) and in test [1] (setting [15]) were 39.1% and 37.6%, respectively.

For the molecule `NC(Cc1ccc(N(CCCl)CCCl)cc1)C(=O)O` (centres undefined), the AC50 in test [2] (measured here: RFP channel) is 35.5 µM [falling, single point]; in test [3] (setting [17]), 53.6 µM [falling, partial curve]; in [4] (setting [18]), 14.6 µM [rising, partial curve, poor fit]. Besides, the results for the max response in test [1] (setting [14]) and in [1] (setting [15]) were 66% and 66.6%, respectively. For the same molecule, the viability change in test [5] was -7.8%.

As for `Cc1ccc(NC(=O)N(Cc2ccc3c(c2)OCO3)C2CCN(Cc3ccccc3)CC2)cc1C`, the AC50 in test [6] (measured here: FLuc reporter channel) is 27.3 µM [falling, partial curve, poor fit]; in [6] (measured here: NLuc reporter channel), 21.7 µM [falling, partial curve].

For the molecule `CC(=O)OC1C[C@@]2(C)C(c3ccoc3)C[C@H]3O[C@@]32[C@@]2(C)C(=O)C(O)=C3C(C)(C)C(=O)C=C[C@]3(C)C12` (some centres undefined), the AC50 in test [1] (setting [19]) was 14.1 µM [falling, partial curve].

Consider `Nc1nc(N)c2nc(CNc3ccc(C(=O)NC(CCC(=O)O)C(=O)O)cc3)cnc2n1` (centres undefined), for which the AC50 in test [2] (measured here: GFP channel) was 0.0316 µM [falling, full curve]; in [2] (measured here: RFP channel) it was 0.0316 µM [falling, full curve]. Also, the viability change in [5] was found to be 4.51%.

Take `CC(C)(C)c1cc(C=C(C#N)C#N)cc(C(C)(C)C)c1O`: the AC50 in test [7] was 3.16 µM [rising, partial curve]; in test [2] (measured here: RFP channel), 35.5 µM [falling, single point]; in [3] (setting [16]) it was 4.78 µM [falling, full curve]; in test [3] (setting [17]) it was 2.69 µM [falling, full curve]; in test [4] (measured here: CBG/CBR ratio read-out), 16.4 µM [falling, partial curve]; in test [4] (setting [18]), 6.51 µM [falling, partial curve]. The AC50 in test [5] is 1.84 µM [falling, full curve]; in test [9] it was 0.103 µM [falling, full curve, poor fit]. Also, the max response in test [1] (setting [14]) is -60.7%; in test [1] (setting [15]) it was -96.6%. Further, the viability change in [5] was -64.1%. Moreover, in test [8], the concentration for half-maximal inhibition (IC50) was 21.7 µM [falling, partial curve, poor fit].

In the case of `N#C/C(=C\c1ccc(O)c(O)c1)C(N)=S`, the max response stood at 43% in [1] (setting [14]) and 58.1% in [1] (setting [15]).

In the case of `Fc1ccc(C(OCCN2CCN(C/C=C\c3ccccc3)CC2)c2ccc(F)cc2)cc1`, the max response was -32.2% in test [1] (setting [14]) and -114% in test [1] (setting [15]).

Consider `CC(=O)[C@H]1CC[C@H]2[C@@H]3CCC4=CC(=O)CC[C@]4(C)[C@H]3CC[C@]12C`, for which the AC50 was 35.5 µM [falling, single point] in test [2] (measured here: RFP channel); 75.7 µM [falling, single point] in [3] (setting [16]); 84.9 µM [falling, single point] in test [3] (setting [17]); 2.59 µM [rising, partial curve] in test [4] (setting [18]); 12.6 µM [rising, full curve, poor fit] and 14.1 µM [rising, full curve, poor fit] in test [11]. Besides, in test [5], the viability change was -5.18%. Further, the max response in [10] was 38.8% and 123% and 91.6%; in test [12], 44.3% and 75.1% and 42.5%; in [13], 14.5% and 25.5%.

With `C/C=C(/C)C(=O)O[C@H]1C(C)=C2C([C@@H]1OC(=O)CCCCCCC)[C@@](C)(OC(C)=O)C[C@@H](OC(=O)CCC)[C@@]1(O)[C@H]2OC(=O)[C@@]1(C)O` (some centres undefined), the AC50 was 35.5 µM [falling, single point] in test [2] (measured here: RFP channel); 35.5 µM [falling, single point] in test [1] (measured here: cell number channel AC50); 39.8 µM [falling, partial curve, poor fit] in [1] (setting [19]); 0.0675 µM [falling, full curve] in test [3] (setting [16]); 0.0601 µM [falling, full curve] in test [3] (setting [17]). Also, the max response in [1] (setting [14]) was -42%; in test [1] (setting [15]) it was -103%.
